# Source: the supplement of paper PMC4604168 (melanoma cell lines)
# This is one part of the list. Single values are uncertain, as repeats are few or missing.
# What was measured:
# Experiment in all cases: cell count relative to DMSO control; melanoma cells; higher = more viable cells
# Details in all cases: library dose: low library concentration; 72 h
# COLO792 = tested on: COLO792
# COLO800 = tested on: COLO800
# COLO829 = tested on: COLO829
# G361 = tested on: G361
# IPC-298 = tested on: IPC-298
# IST-MEL1 = tested on: IST-MEL1
# LB2518-MEL = tested on: LB2518-MEL
# LOXIMVI = tested on: LOXIMVI
# MEL-HO = tested on: MEL-HO
# 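Also: cell number obtained by counting DAPI-stained nuclei in high-throughput microscope images with image analysis software, screen run in 1,536-well plates.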
Compound,cell count (COLO792) [%],cell count (COLO800) [%],cell count (COLO829) [%],cell count (G361) [%],cell count (IPC-298) [%],cell count (IST-MEL1) [%],cell count (LB2518-MEL) [%],cell count (LOXIMVI) [%],cell count (MEL-HO) [%]
"Cc1cc(Nc2cc(N3CCN(C)CC3)nc(Sc3ccc(NC(=O)C4CC4)cc3)n2)n[nH]1 [Tozasertib] + O=C(Nc1cccc(Cl)c1)Nc1ncc(CCNc2ncnc3ccsc23)s1 [SNS314] (first compound 0.006 µM, partner dose 0.0008 µM)",91.8,69,94.5,99.7,104,103,88.1,78.1,87.7
"CC[C@]1(O)C[C@H]2CN(CCc3c([nH]c4ccccc34)[C@@](C(=O)OC)(c3cc4c(cc3OC)N(C=O)[C@H]3[C@@](O)(C(=O)OC)[C@H](OC(C)=O)[C@]5(CC)C=CCN6CC[C@]43[C@@H]65)C2)C1 [vincristine] + c1cc(-c2cnn3cc(-c4ccc(OCCN5CCCCC5)cc4)cnc23)ccn1 [Dorsomorphin] (first compound 0.0001 µM, partner dose 0.4 µM)",98.7,99,75.5,90.2,98.7,92.5,87.6,69.6,99.4
"Cc1cc(Nc2cc(N3CCN(C)CC3)nc(Sc3ccc(NC(=O)C4CC4)cc3)n2)n[nH]1 [Tozasertib] + NCC(=O)Nc1ccc(-n2nc(C(F)(F)F)cc2-c2ccc3c(ccc4ccccc43)c2)cc1 [OSU03012] (first compound 0.006 µM, partner dose 1 µM)",86.7,107,75.4,109,97.5,96.1,110,204,102
"Cc1cc(Nc2cc(N3CCN(C)CC3)nc(Sc3ccc(NC(=O)C4CC4)cc3)n2)n[nH]1 [Tozasertib] + COc1cc(N2CCC(N3CCN(C)CC3)CC2)ccc1Nc1ncc(Cl)c(Nc2ccccc2S(=O)(=O)C(C)C)n1 [NVP-TAE684] (first compound 0.006 µM, partner dose 0.08 µM)",95.6,103,94.4,86.4,94.5,107,86.4,87.6,92.6
"N#CC[C@H](C1CCCC1)n1cc(-c2ncnc3[nH]ccc23)cn1 [ruxolitinib] + O=C1NC(=O)/C(=C/c2ccc(-c3ccc(F)cc3O)o2)S1 [AS252424] (first compound 1 µM, partner dose 1 µM)",108,108,108,90.3,94.8,108,103,113,97.9
"N#CC[C@H](C1CCCC1)n1cc(-c2ncnc3[nH]ccc23)cn1 [ruxolitinib] + O=C(O)C(=O)Nc1sc2c(c1C(=O)O)CCNC2 [TCS401] (first compound 1 µM, partner dose 1.66667 µM)",89.7,115,74.6,90.6,101,103,105,123,104
"CC[C@]1(O)C[C@H]2CN(CCc3c([nH]c4ccccc34)[C@@](C(=O)OC)(c3cc4c(cc3OC)N(C=O)[C@H]3[C@@](O)(C(=O)OC)[C@H](OC(C)=O)[C@]5(CC)C=CCN6CC[C@]43[C@@H]65)C2)C1 [vincristine] + Cn1cc(/C=C2\C(=O)Nc3cccnc32)c2ccccc21 [GW441756] (first compound 0.0001 µM, partner dose 0.4 µM)",130,120,98.4,104,102,91.6,110,60.8,102
"Cc1cc(Nc2cc(N3CCN(C)CC3)nc(Sc3ccc(NC(=O)C4CC4)cc3)n2)n[nH]1 [Tozasertib] + Cc1ccc(NC(=O)c2cccc(N(C)C)c2)cc1NC(=O)c1ccc(O)cc1 [ZM336372] (first compound 0.006 µM, partner dose 2 µM)",102,142,93.5,95.7,80.1,95.1,78.2,148,95.7
"Cc1cc(Nc2cc(N3CCN(C)CC3)nc(Sc3ccc(NC(=O)C4CC4)cc3)n2)n[nH]1 [Tozasertib] + CC(C)CCN1c2nc(Nc3cc(F)c(O)c(F)c3)ncc2N(C)C(=O)C1C [BID1870] (first compound 0.006 µM, partner dose 0.2 µM)",81.1,105,92.6,93.2,96.7,101,,87.3,90.8
"N#CC[C@H](C1CCCC1)n1cc(-c2ncnc3[nH]ccc23)cn1 [ruxolitinib] + CN(C)S(=O)(=O)c1ccc2c(c1)/C(=C/c1cc3c([nH]1)CCCC3)C(=O)N2 [SU6656] (first compound 1 µM, partner dose 0.4 µM)",95.4,151,111,84.8,90.8,92.4,103,125,98.3
